{
  "source": "patent US20220411514A1",
  "about": "“ANTI-GAL3 ANTIBODIES AND METHODS OF USE FOR INSULIN RESISTANCE” (TrueBinding, Inc., priority 2021, published 2022)",
  "molecules": {"B1": {"name": "2D10-VH0-VL0: anti-Gal3 antibody (antibody)", "heavy": "QFQLQQSGPELVKPGASVKISCKASGYTFTDYYINWVKQRPGQGLEWIGWIYPGSNDTKYNEKFKGKATLTVDTSSSTAYMQLGSLTSEDSAVYFCANYFGCSGWFFDVWGTGTTVTVSSASTKGPSVFPLAPCSRSTSESTAALGCLVKDYFPEPVTVSWNSGALTSGVHTFPAVLQSSGLYSLSSVVTVPSSSLGTKTYTCNVDHKPSNTKVDKRV[in this place human IgG4 Fc with S228P (EU numbers)]", "light": "DIVMTQAAFSNPVTLGTSASISCRSSKSLLHSDGITYLYWYLQRPGQSPQLLIYRMSNLASGVPDRFSGSGSGTDFTLRISRVEAEDVGVYYCAQMIEFPLTFGAGTILELKRTVAAPSVFIFPPSDEQLKSGTASVVCLLNNFYPREAKVQWKVDNALQSGNSQESVTEQDSKDSTYSLSSTLTLSKADYEKHKVYACEVTHQGLSSPVTKSFNRGEC", "modifications": "2D10-VH0-VL0 heavy chain peptide sequence; 2D10-VH0-VL0 light chain peptide sequence", "notes": "anti-Gal3 antibody"}, "B2": {"name": "15G7.2A7: anti-Gal3 antibody (antibody)", "heavy": "EVQLQQSGPELVKPGASVKISCKASGYTFTDYYMNWVKQSHGKSLEWIGDINPNNGGTNYNQKFKGKATLTVDKSSSTAYMELRSLTSEDSAVYYCTSGYGFPYWGQGTLVTVSAASTKGPSVFPLAPCSRSTSESTAALGCLVKDYFPEPVTVSWNSGALTSGVHTFPAVLQSSGLYSLSSVVTVPSSSLGTKTYTCNVDHKPSNTKVDKRV[in this place human IgG4 Fc with S228P (EU numbers)]", "light": "DIQMNQSPSSLSASLGDTISITCRASQNINIWLSWYQQKPGNIPQLLIYKASNLHTGVPSRFSGSGSGTDFTLTISSLQPEDIATYYCLQGQSYPLTFGAGTKLVMKRTVAAPSVFIFPPSDEQLKSGTASVVCLLNNFYPREAKVQWKVDNALQSGNSQESVTEQDSKDSTYSLSSTLTLSKADYEKHKVYACEVTHQGLSSPVTKSFNRGEC", "modifications": "15G7.2A7 heavy chain peptide sequence; 15G7.2A7 light chain peptide sequence", "notes": "anti-Gal3 antibody"}},
  "key": {"[1]": {"system": "GLUT4 translocation in L6 GLUT4myc myoblasts", "assay": "Insulin-stimulated GLUT4 translocation with Gal3 and anti-Gal3 antibody", "format": "cell-based, rat", "conditions": "30 μg/mL Gal3 pre-incubated with 60 μg/mL antibody, 100 nM insulin", "experimental": "Rat L6 GLUT4myc myoblasts (Kerafast #ESK202-FP) express a Myc-tagged GLUT4 that can be detected with an anti-Myc antibody. These cells were grown in a 48-well plate in MEM u growth media (Gibco, #12-571-063)+10% fetal bovine serum (FBS; Corning #35-016-CV) until 90-95% confluence was reached. Cells were then washed in PBS and serum starved for 2 hours in MEM u growth media without FBS. Thirty (30) μg/mL recombinant human Gal3 (TrueBinding QCB200347) was pre-incubated with 60 μg/mL anti-Gal3 antibodies for 30 minutes before being added to the serum-starved cells for 1 hour at 37° C. At the end of incubation, half of the cells were treated with 100 nM insulin (Sigma-Aldrich #I5523-50MG) for 20 minutes while the other half acted as basal controls. After 20 minutes, cells were washed quickly with ice cold PBS twice, then incubated with 4% paraformaldehyde (Boster Bio #AR1068) for 10 minutes on ice followed by 10 minutes at room temperature. The cells were washed three times with PBS, then blocked with 0.5 mL 5% goat serum (Vector Laboratories #101098-382) in PBS for 15 minutes. After the blocking agent was aspirated from the cells, 1 μg/ml anti-Myc polyclonal antibody (Sigma-Aldrich #C-3956) in 5% goat serum was added for 1 hour. […] Primary antibody was aspirated away, and then cells washed 5 times with PBS. Next, cells (including background controls) were incubated with 1:1000 goat anti rabbit antibody secondary antibody (Abcam #Ab97051) in 5% Goat serum for 30 minutes at room temperature. After washing, cells were incubated with 400 μL of TMB (Thermo Scientific #PI34029) for 5 minutes, then 200 μL of 1N HCL (Avantor Performance #JT5620-2) was added to stop the reaction. 100 μL of the sample was transferred to a 96 well plate with duplicates transferred for each condition. Samples were read at 450 nm on a SpectraMax plate reader. […] The fold changes were plotted on GraphPad Prism and presented as mean (SEM) of the technical replicates. Statistical significance was determined using unpaired T-tests comparing samples treated with Gal3 and insulin with all other conditions."}, "[2]": {"molecular_target": "interaction between Gal3 and GLUT1 (Homo sapiens, UniProt P17931)", "sequence (P17931 whole entry)": "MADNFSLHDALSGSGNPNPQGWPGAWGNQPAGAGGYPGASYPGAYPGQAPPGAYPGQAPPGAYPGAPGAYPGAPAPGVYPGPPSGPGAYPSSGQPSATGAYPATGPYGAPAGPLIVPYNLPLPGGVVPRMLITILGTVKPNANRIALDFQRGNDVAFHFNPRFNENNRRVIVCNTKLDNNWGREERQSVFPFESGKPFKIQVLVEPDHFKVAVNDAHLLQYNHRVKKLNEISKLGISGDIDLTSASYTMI", "assay": "Gal3-GLUT1 blocking ELISA", "format": "binding", "conditions": "antibody 3-fold dilutions", "experimental": "(§1) Human Gal3 protein was diluted in PBS to a concentration of 2 μg/mL and used to coat a 96-well ELISA plate with 40 μL per well. After incubating the plate at 4° C. overnight, the plate was washed three times with 300 μL PBST. A blocking step was performed with 150 μL of 2% BSA in PBST per well and incubated for an hour at RT with gentle rocking. The existing blocking solution was then discarded form the plate. […] 30 μL of 3 μg/mL of FLAG-tagged GLUT1 or GLUT4 protein diluted in 2% BSA in PBST was then added to the appropriate wells containing antibody or control solution. The plate was incubated for an hour at RT with gentle rocking and then washed three times with 300 μL PBST. Afterwards, HRP-tagged anti-FLAG antibody was diluted to 1:4000 in 2% BSA in PBST, and 25 μL was added to all of the wells. The plate was incubated for an hour at RT with gentle rocking, and then washed with 300 μL PBST three times. To develop the plate, 50 μL of ABTS substrate was added to each well and incubated until a sufficiently high signal was achieved. The plate was read with a plate reader at an absorbance of 405 nm. Data was graphed using GraphPad Prism 8.0 software and IC50 values were generated using manufacturer instructions."}, "[3]": {"molecular_target": "interaction between Gal3 and GLUT4 (Homo sapiens, UniProt P17931)", "sequence (P17931 whole entry)": "as above", "assay": "Gal3-GLUT4 blocking ELISA", "format": "binding", "conditions": "antibody 3-fold dilutions", "experimental": "as §1"}, "L6 myoblasts": {"system": "L6 myoblasts", "assay": "Antibody internalization into skeletal muscle cells", "format": "cell-based, rat", "conditions": "with 2 or 10 μg/mL Gal3 or without Gal3, 3 hours", "experimental": "It was tested whether anti-Gal3 antibodies were internalized into skeletal muscle cells. L6 myoblasts were seeded at a density of 10000 cells per well in a black clear bottom 96 well plate in L6 complete medium. The next day, the cells were serum starved using serum-free medium in the morning for 2 hours before proceeding with the following internalization experiment. […] The fluorophore-conjugated antibodies were then mixed with Gal3 protein (2 μg/mL or 10 μg/mL Gal3) or without Gal3 as control, and this mixture was added to the myoblasts. After 3 hours of incubation, fluorescent images of the cells were taken."}, "[4]": {"molecular_target": "T1, interaction of Gal3 and INSR (Homo sapiens, UniProt P17931)", "T1 construct": "6xHis (linker-spaced) (C); purchased Acro Biosystems (Gal3); Sino Biological (INSR) GA3-H5129; 11086-H08H", "T1 sequence (P17931 2-250 limits assumed)": "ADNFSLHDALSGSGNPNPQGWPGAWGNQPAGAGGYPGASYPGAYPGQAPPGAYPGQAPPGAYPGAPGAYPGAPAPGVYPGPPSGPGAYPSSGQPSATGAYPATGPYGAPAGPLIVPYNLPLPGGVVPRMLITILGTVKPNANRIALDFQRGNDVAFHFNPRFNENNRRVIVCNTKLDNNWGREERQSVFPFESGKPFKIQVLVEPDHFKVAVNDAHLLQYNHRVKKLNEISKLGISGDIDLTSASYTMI", "assay": "Gal3-INSR blocking ELISA", "format": "binding", "conditions": "antibody 3 μg/mL", "experimental": "Positively scoring wells were evaluated for the ability to block association of Gal3 and INSR. To identify Gal3-targeted antibodies with the ability to block the interaction of Gal3 and INSR, purified Gal3 and INSR proteins were incubated in the presence of Gal3-immunization hybridoma supernatants described above, or without antibody, and protein interaction was evaluated by ELISA. Human Galectin-3 protein (Acro Biosystems, GA3-H5129) was diluted in PBS (Corning, 21-030-CM) to a concentration of 3 μg/ml and added to the wells of a 96-well ELISA plate (Thermo Fisher, 44-2404-21). After incubating the plate at 4° C. overnight, the plate was washed three times with PBST (PBS with 0.05% Tween 20 [VWR, 0777]). The plate was then blocked for an hour with 2% BSA (EMD Millipore, 126609) in PBST at room temperature with gentle rocking. Thereafter, the 2% BSA in PBST was discarded and antibody or inhibitor (3-fold dilutions beginning at 20 μg/ml, 60 μg/ml, or 180 μM) in 2% BSA in PBST was added to the wells. Afterwards, 6 μg/ml of human Insulin Receptor (Sino Biological, 11086-H08H) in 2% BSA in PBST was added to the antibody or inhibitor in the wells in a 1:1 ratio. The plate was incubated for an hour at room temperature with gentle rocking. […] The reaction was stopped with 1M HCl (JT Baker, 5620-02) and read using a plate reader (Molecular Devices) at absorbance of 450 nm."}, "hGal3 peptide": {"molecular_target": "T2, hGal3 peptide (Homo sapiens, UniProt P17931)", "T2 construct": "a library of 24 amino acid peptides representing portions of Gal3", "assay": "Gal3 peptide library binding ELISA (Example 2)", "experimental": "To identify the epitopes to which Gal3 antibodies with and without Gal3-INSR blocking activity bound, a library of 24 amino acid peptides representing portions of Gal3, depicted in FIG. 18, was produced and the ability of each peptide to bind Gal3 antibodies was evaluated by ELISA. At least 2 μg/ml of hGal3 peptide in 50 μl of PBS or 0.1 μg/ml of full-length human Gal3 protein (GenScript) and human Galectin-3 protein (Acro Biosystems, GA3-H5129) were diluted in PBS (Corning, 21-030-CM) to concentrations of at least 2 μg/ml or 0.1 μg/ml, respectively, and added to the wells of a 96-well ELISA plate (Thermo Fisher, 44-2404-21). After incubating the plate at 4° C. overnight, the plate was washed three times with PBST (PBS with 0.05% Tween 20 [VWR, 0777]). The plate was then blocked for an hour with 2% BSA (EMD Millipore, 126609) in PBST at room temperature with gentle rocking. Thereafter, the 2% BSA in PBST was discarded and human Galectin-3 hybridoma supernatants or antibodies were diluted in 2% BSA in PBST to concentrations of at least 0.1 μg/ml and added to the wells. The plate was incubated for an hour at room temperature with gentle rocking and then washed three times with PBST. Afterwards, Goat Anti-Mouse IgG-HRP (Jackson ImmunoResearch, 115-036-1461) or Goat Anti-Rat IgG HRP (Abcam, ab205720) diluted in 2% BSA in PBST (1:4000) were added to the wells. The plate was incubated for 30 minutes to 1 hour at room temperature with gentle rocking and then washed three times with PBST. TMB substrate (Thermo Scientific, 34029) was then added to each well. The reaction was stopped with 1M HCl (JT Baker, 5620-02) and read using a plate reader (Molecular Devices) at absorbance of 450 nm."}, "Human Gal3 peptides": {"molecular_target": "T3, Human Gal3 peptides (Homo sapiens, UniProt P17931)", "T3 construct": "purchased LifeTein custom order", "assay": "Gal3 peptide binding ELISA (Example 8)", "conditions": "antibody 5 μg/mL", "procedure,_shortened": "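Plates coated overnight at 4 °C with human Gal3 peptides (at least 100 μg/mL) or Gal3 protein (1 μg/mL) in PBS, then blocked with 2% BSA/PBST. Antibodies as hIgG4 (S228P) at 5 μg/mL, 1 h at room temperature. Detection by HRP anti-human IgG F(ab′)2 and TMB, absorbance at 450 nm.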"}},
  "data": [
    {"molecule": "B1", "values": [
      {"measurement": "effect on Gal3 block of insulin-stimulated GLUT4 translocation", "setting": "[1]", "result": "reduce the ability of Gal3 to block GLUT4 translocation"},
      {"measurement": "inhibition of GLUT1 binding to Gal3", "setting": "[2]", "result": "concentration-dependent ability"},
      {"measurement": "inhibition of GLUT4 binding to Gal3", "setting": "[3]", "result": "concentration-dependent ability"},
      {"measurement": "internalization of fluorophore-conjugated antibody into myoblasts", "setting": "L6 myoblasts", "result": "internalized into the myoblasts only in the presence of Gal3"}
    ]},
    {"molecule": "B2", "values": [
      {"measurement": "reduction of Gal3-INSR binding/assembly", "setting": "[4]", "result": "greater than 99%"},
      {"measurement": "binding to Gal3 peptide 1 (amino acids 1-20, SEQ ID NO: 3)", "setting": "hGal3 peptide", "result": "bound"},
      {"measurement": "binding to Gal3 peptide 7 (amino acids 61-80, SEQ ID NO: 9)", "setting": "hGal3 peptide", "result": "bound"},
      {"measurement": "binding to Gal3 peptide 1 (SEQ ID NO: 3)", "setting": "Human Gal3 peptides", "result": "bound"},
      {"measurement": "binding to Gal3 peptide 6 (SEQ ID NO: 8)", "setting": "Human Gal3 peptides", "result": "bound"},
      {"measurement": "binding to Gal3 peptide 7 (SEQ ID NO: 9)", "setting": "Human Gal3 peptides", "result": "bound"},
      {"measurement": "binding to Gal3 peptide 8 (SEQ ID NO: 10)", "setting": "Human Gal3 peptides", "result": "bound"},
      {"measurement": "binding to Gal3 peptide 10 (SEQ ID NO: 12)", "setting": "Human Gal3 peptides", "result": "bound"}
    ]}
  ]
}
